Entries after “also recorded” stand apart in the source; their conditions may differ.
Assays:
CXCR4+ Ramos cell line = experiment: Induction of apoptosis (Annexin V / PI staining); assay type: cell-based, human; settings: IgG1 0.08 to 10 μg/ml, 48 hrs, versus background level
Method: The ability of anti-CXCR4 antibodies to induce apoptosis was assessed on the CXCR4^+ Ramos cell line.
Ramos cells were cultivated as described above.
The Ramos cells were harvested by centrifugation, washed twice in RPMI-1640 culture medium with 10% FCS and resuspended in RPMI-1640 medium with 10% FCS to a density of 3×10^5 cells/ml. The cell suspension (250 μl) was mixed with the same volume of either antibody to be tested in dilutions (final concentration of 0.08 to 10 μg/ml) or staurosporin (25 nM) in wells of a 24-well plate and incubated at 37° C. for 48 hrs. The cells were collected by centrifugation and washed in Annexin V Binding Buffer (10 mM Hepes, 140 mM NaCl, 2.5 mM CaCl2, 0.2% BSA, pH 7.4). The cells were harvested again and resuspended in 300 μl Annexin V Binding Buffer. Both FITC-conjugated Annexin V and propidium iodide (PI) were mixed with 240 μl cell suspension resulting in a final concentration of PI of 0.2 μg/ml. The samples were analyzed immediately after adding the ligand using the 515-545 nm and 610/20 nm band pass filters on a FACSCanto II flow cytometer (BD Biosciences). The apoptotic cells were defined as Annexin V positive/PI negative and the dead cells were defined as PI positive.

[1] = biological target: T1, monkey (Macaca mulatta) CXCR4 (Macaca mulatta, UniProt P79394); experiment: Species cross reactivity: binding to HEK-293 cells transiently expressing monkey CXCR4; settings: scFv level; transiently transfected HEK-293 cells
T1 construct: expressed in transfected cells; host or cells: HEK-293 (HEK293T/17), transient transfection with Fugene
T1 sequence (P79394 whole entry): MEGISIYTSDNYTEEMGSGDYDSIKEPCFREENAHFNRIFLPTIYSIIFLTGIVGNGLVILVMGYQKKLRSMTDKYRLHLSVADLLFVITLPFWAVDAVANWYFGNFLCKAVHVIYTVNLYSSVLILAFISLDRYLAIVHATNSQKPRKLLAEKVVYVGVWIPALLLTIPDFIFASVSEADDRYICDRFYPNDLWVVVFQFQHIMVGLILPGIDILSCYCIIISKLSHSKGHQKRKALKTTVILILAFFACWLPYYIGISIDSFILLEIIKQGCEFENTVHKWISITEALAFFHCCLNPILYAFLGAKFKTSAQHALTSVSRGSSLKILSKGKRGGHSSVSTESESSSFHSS
Method: (§1) The antibody candidates were tested on scFv level for their ability to cross-react with CXCR4 from monkey and mouse.
(§2) HEK293T/17 cells were maintained as described above.
(§3) FACS-binding analyses (EasyCyte) were performed using HEK-293 cells transiently transfected with plasmids encoding either, mouse (Gene bank accession number BC031665) or monkey (Macaca mulatta) CXCR4 (NCBI Accession number NP_001036110). Two experiments were performed, one using α-cMyc and PE-labelled goat anti-mouse IgG antibody, the second using a directly conjugated RPE-c-Myc antibody for detection. In addition, cross-reactivity on IgG level was analysed. In the latter case, antibody binding was detected with PE-conjugated goat anti-human IgG antibody.

CXCR4 [2] = biological target: T2, CXCR4 (Homo sapiens, UniProt P61073); experiment: Interference with ligand binding: IgG binding to CCRF-CEM cells without and with SDF-1α
T2 construct: CRL-1596 (Ramos); host or cells: Ramos, Jurkat 6E-1, CCRF-CEM
T2 sequence (P61073 whole entry): as the sequence (P79394 whole entry) above, with I24M, H35N, R38K, K146R, S176N, D214V counted along it
Method: CCRF-CEM were maintained as described above.
Cells of the natural CXCR4^+ expressing cell line CCRF-CEM were harvested from the culture flasks, washed 2 times with PBS supplemented with 0.2% BSA and 0.09% NaN3 buffer and aliquoted at 1×10^5 cells per well into V-shaped 96-well plates (Greiner Bio-One, Frickenhausen, Germany). Cells were pelleted by centrifugation (350 g, 5 min) and then incubated for 60 min at 4° C. with 4, 1, 0.5 μg SDF-1α (PeproTech EC, London, UK) and 50 μl IgG diluted to 2 μg/ml in PBS supplemented with 0.2% BSA and 0.09% NaN3 buffer, both added at the same time to the cells. Samples without ligand served as control. The supernatants were aspirated after a centrifugation step at 350 g for 5 min and the cells were washed another two times with 150 μl PBS supplemented with 0.2% BSA and 0.09% NaN3 and centrifugation steps (5 min at 350 g) before being stained with RPE-conjugated goat anti-human IgG (AbD seroTec #204009) diluted to 2.5 μg/ml in with PBS supplemented with 0.2% BSA and 0.09% NaN3 and incubated for 30 minutes at 4° C. The cells were washed again and re-suspended in 200 μl PBS with 0.2% BSA and 0.09% NaN3 and transferred to a U-shaped 96-well plate (Corning) for flow cytometry using an EasyCyte device (Guava Technologies, Hayward, Calif., USA).

mouse CXCR4 = biological target: T3, mouse CXCR4 (Mus musculus, UniProt P70658); experiment: Species cross reactivity: binding to HEK-293 cells transiently expressing mouse CXCR4; settings: scFv level; transiently transfected HEK-293 cells
T3 construct: expressed in transfected cells; host or cells: HEK-293 (HEK293T/17), transient transfection with Fugene
T3 sequence (P70658 whole entry): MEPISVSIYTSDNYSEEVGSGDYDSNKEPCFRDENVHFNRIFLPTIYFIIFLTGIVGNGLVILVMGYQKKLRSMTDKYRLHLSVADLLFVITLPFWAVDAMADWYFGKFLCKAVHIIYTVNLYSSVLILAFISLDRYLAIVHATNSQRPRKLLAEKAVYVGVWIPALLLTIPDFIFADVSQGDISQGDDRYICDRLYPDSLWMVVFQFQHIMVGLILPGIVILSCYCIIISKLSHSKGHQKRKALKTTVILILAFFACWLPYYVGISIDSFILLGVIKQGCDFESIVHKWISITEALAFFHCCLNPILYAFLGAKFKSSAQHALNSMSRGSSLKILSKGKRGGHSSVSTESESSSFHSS
Method: as §1, §2, §3

CXCR4 [3] = biological target: T2, CXCR4; experiment: Inhibition of SDF-1α ligand induced Ca++ flux in CCRF-CEM cells (Fluo-4); assay type: cell-based
Method: 9N10 was only tested on IgG level. The experiment was performed using the naturally CXCR4^+ positive cell line CCRF-CEM.
The CCRF-CEM target cells, were harvested by centrifugation and washed twice in RPMI-1640 culture medium. Either 1 ml with 2.5×10^6 cells (for IgGs) or 10 ml with 2.5×10^7 cells (for scFvs) were mixed with Fluo-4-AM (acetoxymethyl ester; Invitrogen), Pluronic F-127 (Invitrogen) and Probenecid to final concentrations of 1 μM, 0.02% and 1 mM respectively. The cells were incubated at 37° C. for 60 mM on a vertical rotating wheel (7 rpm). All subsequent steps were done in the presence of 1 mM Probenecid. The cells were washed twice in RPMI-1640 with 10% fetal calf serum (FCS), once in an assay buffer (145 mM NaCl, 4 mM KCl, 1 mM NaH2PO4, 0.8 mM MgCl2, 25 mM Hepes, 22 mM glucose) and then resuspended to a final density of 4×10^6 cells/ml. Equal volumes of cells, assay buffer with or without antibodies and ligand (SDF-1α) were mixed. The first two components (cells and antibodies) were pre-incubated for 15 min prior to adding the ligand, SDF-1α (final concentration 50 ng/ml). The final concentrations of antibodies were 10 μg/ml or 100 μg/ml for IgGs and 4 μg/ml for scFvs. The samples were immediately analyzed using the 515-545 nm band pass filter on a FACSCanto II (BD Biosciences). The areas under the curves (AUC) were integrated using software Prism (GraphPad) and plotted as percentage of AUC for maximal stimulation with SDF-1α alone.
The experiment was performed as described above, but the antibodies were used in a titration series with concentrations of 100, 20, 4, 0.8, 0.16, 0.032, 0.064 and 0.00128 μg/ml.

B1: 9N10: human anti-CXCR4 antibody; scFv SEQ ID NO: 101; same VH as C-9P21; IgG1/kappa heavy chain SEQ ID NO: 108, light chain SEQ ID NO: 125 (antibody)
heavy: QVQLQESGGGLVHPGGSLRLSCAASGFTFSSYWMHWVRQAPGKGLVWVSRINSDGSSTSYADSVKGRFTISRDNAKNTLYLQMNSLRAEDTAVYYCARKILGVGARSRRYFDYWGQGTMVTVSS[human IgG1 constant region left out]
light: DIVLTQTPDSLAVSLGETTTINCKSSQSVLHSSNNKNYLAWYQQKPGQPPKLLIYWASTRESGVPDRFSGSGSGTDFTLTISNLQPEDVAFYYCLQYSTFPRTFGQGTKVEIKRTVAAPSVFIFPPSDEQLKSGTASVVCLLNNFYPREAKVQWKVDNALQSGNSQESVTEQDSKDSTYSLSSTLTLSKADYEKHKVYACEVTHQGLSSPVTKSFNRGEC
modifications: antibody sequence
notes: human anti-CXCR4 antibody; same VH as C-9P21
B1 was tested. Which “induction of apoptosis (Annexin V positive/PI negative cells)” value (CXCR4+ Ramos cell line) did it give?
The value was “do not induce significant apoptosis”.

And the “cross-reactivity with monkey CXCR4” value [1]?
The value was “bind to both human CXCR4 and monkey CXCR4; also recorded: same cross-reactivity pattern as C-9P21, with slightly higher absolute values for binding”.

And the “specific binding to CCRF-CEM cell line” value (CXCR4 [2]; IgG 2 μg/ml (0.1 μg per 10^5 cells))?
The value was “specific binding”.

What about the “inhibition of antibody binding by SDF-1” value (CXCR4 [2]; IgG, 4, 1, 0.5 μg SDF-1α, CCRF-CEM cells) of the same molecule?
The value was “capable of inhibiting the binding of CXCR4 to its ligand SDF-1; also recorded: inhibited by SDF-1”.

What about the “cross-reactivity with mouse CXCR4” value (mouse CXCR4) of the same molecule?
Its value is “same cross-reactivity pattern as C-9P21, with slightly higher absolute values for binding”.

What about the “inhibition of SDF-1α-induced signalling, IgG level” value (CXCR4 [3]; IgG 10 or 100 μg/ml (9N10: 1 or 10 μg/ml), CCRF-CEM cells) of the same molecule?
The value was “inhibition of SDF-1α-induced signalling was demonstrated”.

And the “efficiency in inhibition of Calcium flux relative to C-9P21” value (CXCR4 [3]; IgG level, from IC50 values)?
Its value is “approximately eight times more efficient”.

And the “antagonistic effect on Ca++ signalling induced by SDF1α binding to CXCR4 (overall)” value (CXCR4 [3]; scFv and/or IgG, CCRF-CEM cells)?
The value was “capable of inhibiting ligand induced signalling via CXCR4; also recorded: most prominent effect”.

— patent US9353185B2, “Antibodies” (Affitech Research AS, priority 2010, dated 2016)
